Source: the RNAGym collection of RNA variant scans (doi:10.1093/nar/gkz1192)
Read counts are not given, so values of variants with three or more changes are uncertain.

B1: CPEB3 Ribozyme (parent)
chain: UAACAGGGGGCCACAGCAGAAGCGUUCACGUCGCAGCCCCUGUCAGAUUCUGGUGAAUCUGCGAAUUCUGCUGUAUAUCUC

Variants of: B1
Assay: self-cleavage, relative activity (ratio to wild type); higher = more cleavage; in vitro, sequencing
Summary of the method: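 After error-prone PCR and barcoding, CPEB3 ribozyme mutant libraries were transcribed with T7 RNA polymerase at 37°C for 5 hours, then given 15 min with DNase I before an EDTA stop, and they cleaved during both steps. Reverse transcription with template switching preceded Illumina sequencing. Relative activity divides a variant's cleaved/total read fraction by the unmutated ribozyme's. At least 5 reads were required per variant, and three batches were averaged.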

Variant	self-cleavage
UAACGGGGAGCCACAGCAGAGGCGUACACGUCGCAGCCCCCGUCAGAUUCUGGUGAGUCUGCGAAUCCUGCUGUAUAUCUC	0.06
UAACGGGGAGCCACAGCAGAUGCGUUCACGUCGCUGCCACUGUCAGAUUCUGGUGAAUCAGCGAAUUCUGCUGCAUAUCUC	0.05
UAACGGGGAGCCACAGCAGAAGCGUUCACGUCGCUGCCCCUGUCAGAUUCUGGUGAAUCUGCGUAUUCCGCUGUAUAUCUC	0.2
UAACGGGGAGCCACAGCAGAAGCGUUCACGUCGCAGCUCCUGUCAGAUUCUGGUGAAUCUGCGAAUUCUGCCGUAUGUCUC	0.66
UAACGGGGAGCCACAGCAGAAGCGCUCACGUCGCUGCCCCUGUCAGAUUCAGGUGAAUCUGCGAAUUCUGCUGUAUAUCUC	0.05
UAACGGGGAGCCACAGCAGAAGCGCUCACGUCGCAGCCCCUGUCAGAUCCUGGUGGAACUGCGAAUUCUGCUGUAUAUCUC	0.07
UAACGGGGAGCCACAGCAGAAGCGUACACGUCGCAGCCCCUGUCAGAUUCUGGUAGAUCUGCGUAUCCUGCUGUAUAUCUC	0.03
UAACGGGGAGCCACAGCAGAAGCGUCCACGUCGCAGCCCCUGUCAGAUUCUGGUGAAUCUGCGAAUUCUGCUGUAUAUCUC	0.08
UAACGGGGAGCCACAGCAGAAGCGUUCACGUCGCAGCCCCAGUCAGACUCUGGUGAAUCUGCGAGUUCUGCUGUAUAUCCC	0.06
UAACGGGGAGCCACAGCAGAAGCGUUCACGUCGCAGCCCCUGUCAGAAUCUGGUGAAUCUGCGAAUUCCGUUGUAUAUCCC	0.06
UAACGGGGAGCCACAGCAGAAGCGUUCACGUCGCAGCCCCUGUCAGAUUCUGGUGAACCUGCGAAUUCUGCUGCAUAUCUC	0.49
UAACGGGGAGCCACAGCAGAAGCGUUCACGUCGCAGCCCCUGUCAGAUUCUGGUGAAUCUGCGAACUCUUCUGUAUAUCUC	0.31
UAACGGGGAGCCACAGCAGAAGCGUUCACGUCGCAGCCCCUGUCAGAUUCUGGUGAAUCUGCGAAUUCUGCUGCAUAUCCC	0.57
UAACGGGGUGCCACAGCAGAAGCGUUCACGUCGCUGCCCCUGUCAGUUUCUGGUGAAUCUGCGAAUUCUGCUGUAUACCUC	0.18
UAACGGGGUGCCACAGCAGAAGCGUUCACGUCGCAGCCCCUGUCAGGUUCUGGUGAAUCUGCGAAUUCUGCUGUAUAUCUC	0.18
UAACGGGGUGCCACAGCAGAAGCGUUCACGUCGCAGGCCCUGUCAGUUCCUGGUGAAUCUGCUAAUUCUGCCGUAUAUCUC	0.04
UAACGGGGUGCCACAGCAGAAGCGUUCACGUCGCAGCCCCUGUCAGAUUCUGGUGAAUCUGCAAAUUCUGCUGUAUAUCUC	0.3

Variant	self-cleavage
UAACGGGGUGCCACAGCAGAAGCGCUCACGUCGCAGCCCCUGUCAGAUUCUGGUGAAUCUGCGAAUUCUGCUGCAUAUCUC	0.07
UAACGGGGUGCCACAGCAGAAGCGUUCACGACGCAGCCCCUGACAGAUUCUGGUGAACCUGCGAAUUCUGCCGUAUAUCUC	0.04
UAACGGGGUGCCACAGCAGAAGCGUUCACGUCGCAGCCCCUGUCAGAUCCUGGGGAAUCUGCGAAUUCUGCUGUAUAUCUC	0.27
UAACGGGGGACCACUGCAGAAGCGUUCUCGUCGCAGCCCCUGACGGAUUCUGGUGAAUCUGCGAAUUCUGCUGUAUAUCUC	0.05
UAACGGGGGACCACAGCUGAAGCGUUCACGUCGCAGCCCCUGUCAGAUUCUGGUGAAUCUGCGAAUUCUGCUGUAUAUCUC	0.23
UAACGGGGGACCACAGCAGAAGCGUUCACGUCGCAGCCCCUGUCUGAUUCUGGUGGAUCUGCGAAUUCUGCUGGAUAUCUC	0.27
UAACGGGGGACCAUAGCAGUAGCGUUCACGUCGCAGCCCCUGUCUGAUUCUGGUGAAUCUGCGAAUUCUGCUGUGUAUCUC	0.07
UAACGGGGGACCAUAGCAGAAGCGAUCACGUCGCAGCCCCUGUCAGAUUCUGGUGAAUCUGCGAGUUCUGCUGUAUAUCCC	0.47
UAACGGGGGACCACAGGAGAAGCGUUCACGUCGCAGCCCCCGUCUGAUUCUGGUGAAUCUGCGAAUUCUGCCGUGUAUCUC	0.04
UAACGGGGGACCACAGCAGAAGAGUUCACGUCGCAGCCACUGUCAGAUUCUCGUGAAUCUGCGAAUUCAGCUGUAUAUCUC	0.06
UAACGGGGGACCACAGCAGAAGCGUUCAUCUCGCAGCCCCUGUCAGAUUCUGGUGAAUCUGCGAAUUCUGCCGUAUAUCUC	0.07
UAACGGGGGACCACAGCAAAAGCGUUCACGUCGCAGCCCCUGCCAGAUUCUGGCGGAUCUGCGAAUUCUGCUGUAUAUCUC	0.3
UAACGGGGGACCACAGCAGAAGCGUUCACGUCGCAGCCCCUGUCAGAUUCUGGUGAAUCUACGAAUCCUGCAGUAUAUCUC	0.11
UAACGGGGGACCACAGCAGAAGCGUUCACGUCGCAGCCCCAGUCAGAUUCUGGUGAAUCUGCGAAUUCUGCAGUACAUCUC	0.13
UAACGGGGGACCACAGCAGAAGCGUUCACGUCGCAGCCCCCGUCAGAUUCUGGUGAAUCUGCGAAUUCUGCUGUAUAUCUC	0.38
UAACGGGGGACCACAGCAGAAGCGUUCACGUCGCAGCCCCUGUCAGAUACUGGUGAAUCUGCGAAUUCUGCUGUAUAUCUC	0.7
UAACGGGGGACCACAGCAGAAGCGUUCACGUCGCAGCCCCUGUCAGAUUCUGGUGAAUCUGCGAAUACUGCUGUAUAUCUC	0.23
